Data on 32 cell lines can be found in the supplement of paper PMC4967469.

Compound in the test: CCCCCCCCCCCC1=C(O)C(=O)C=C(O)C1=O [Embelin]
The test is described as follows: Viability of human cancer cell lines after 72 h of drug (GDSC screen). The following applies: top dose 32 µM; top dose inferred. As to the method:
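Human cancer cell lines in 384-well plates, medium with 10% serum, drug for 72 h over a 256-fold dose range (nine 2-fold or five 4-fold steps up to the top dose). Adherent lines were fixed and stained with the nucleic acid dye Syto60, suspension lines read with resazurin; signal relative to control wells, capped at 0 and 100%. One two-parameter sigmoid per drug and line, fitted in a mixed model over all curves with the slope shared within a line.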

IC50 is the fitted dose that halves viability relative to control wells, and lower means more sensitive; a limit (>, <) means that the fit lies beyond the doses tested. AUC, from the same fit, is the share of area under the viability curve across the 256-fold dose range; it is 1 without any effect and falls as sensitivity rises. Where the top dose is marked as inferred, it comes from the curve model; the source does not state it.

In general, IC50 refers to the point on the concentration scale where inhibition reaches its midpoint.

PC-3 (prostate, adherent): the AUC is 0.797 and the concentration for half-maximal inhibition (IC50) was 19 µM.

Turning to “PC-3 [JPC-3] (lung adenocarcinoma, adherent)”, the AUC worked out at 0.8 and the IC50 stood at 21.8 µM.

In the case of PC-14 (lung adenocarcinoma, adherent), the AUC stood at 0.802 and the IC50 was 13.8 µM.

Regarding PCI-4B (head and neck, adherent), the AUC was 0.743 and the IC50 was found to be 9.48 µM.

Turning to PCI-6A (head and neck, adherent), the AUC was 0.78 and the IC50 worked out at 12.9 µM.

PCI-15A (head and neck, adherent): the AUC is 0.721 and the half-inhibitory concentration (IC50) amounted to 8.52 µM.

As to PCI-30 (head and neck, adherent), the AUC worked out at 0.902 and the IC50 is greater than 32 µM.

Take PCI-38 (head and neck, adherent): the AUC was 0.898 and the IC50 is greater than 32 µM.

Turning to PE/CA-PJ15 (head and neck, adherent), the AUC worked out at 0.826 and the IC50 is 21.5 µM.

As for “PF-382 (T-cell lymphoblastic leukaemia, suspension)”, the AUC is 0.693 and the IC50 is 6.42 µM.

Consider PFSK-1 (medulloblastoma, adherent), for which the AUC was 0.808 and the IC50 stood at 17.8 µM.

As to PL4 (pancreas, adherent), the AUC worked out at 0.832 and the concentration for half-maximal inhibition (IC50) came to 21.4 µM.

On to PL18 (pancreas, adherent), for which the AUC worked out at 0.693 and the IC50 amounted to 6.94 µM.

For “PL-21 (acute myeloid leukaemia, suspension)”, the AUC came out at 0.877 and the IC50 is greater than 32 µM.

As to PSN1 (pancreas, adherent), the AUC stood at 0.722 and the IC50 was determined as 7.51 µM.

“QIMR-WIL (acute myeloid leukaemia, suspension)”: the AUC is 0.629 and the IC50 turned out to be 4.48 µM.

Take RC-K8 (B-cell lymphoma, suspension): the AUC was found to be 0.89 and the IC50 was found to be 28.3 µM.

On to RCC10RGB (kidney, adherent), for which the AUC worked out at 0.895 and the IC50 is greater than 32 µM.

On to RCM-1 (large intestine, adherent), for which the AUC was determined as 0.795 and the IC50 is 18.6 µM.

For the cell line RD (rhabdomyosarcoma, adherent), the AUC is 0.809 and the IC50 came to 18.7 µM.

Consider REH (B-cell leukaemia, suspension), for which the AUC was found to be 0.745 and the half-inhibitory concentration (IC50) turned out to be 9.73 µM.

RERF-GC-1B (stomach, adherent): the AUC is 0.817 and the IC50 worked out at 20.7 µM.

Consider “RERF-LC-KJ (lung adenocarcinoma, adherent)”, for which the AUC worked out at 0.717 and the IC50 amounted to 8.42 µM.

In the case of “RERF-LC-MS (lung adenocarcinoma, adherent)”, the AUC was 0.811 and the IC50 was 17.5 µM.

Take “RERF-LC-Sq1 (lung squamous cell carcinoma, adherent)”: the AUC worked out at 0.845 and the IC50 is greater than 32 µM.

As to RF-48 (stomach, adherent), the AUC stood at 0.788 and the IC50 was found to be 15.9 µM.

Take RH-1 (rhabdomyosarcoma, adherent): the AUC was found to be 0.801 and the IC50 was determined as 12.7 µM.

For the cell line RH-41 (rhabdomyosarcoma, adherent), the AUC turned out to be 0.796 and the IC50 is 12.3 µM.

Consider RKN (ovary, adherent), for which the AUC is 0.836 and the IC50 was found to be 23.1 µM.

For the cell line RKO (large intestine, adherent), the AUC was 0.608 and the IC50 was determined as 3.86 µM.

For the cell line RL (B-cell lymphoma, suspension), the AUC was determined as 0.968 and the IC50 was greater than 32 µM.

Take RMG-I (ovary, adherent): the AUC was found to be 0.749 and the IC50 worked out at 11.9 µM.
